# Measurements reported in PubChem BioAssay AID686978 (National Center for Advancing Translational Sciences (NCATS), 2013).
# The campaign covered roughly 420,000 compounds. About 64,000 (15%) were called active. This list was built around the results that the source calls inconclusive (neither active nor inactive); the mix of calls is not that of the screen. Calls follow the shape of the dose curve; as a rule, active = well fitted inhibition curve with a large enough effect; inconclusive = small, poorly fitted or top-dose-only effect; inactive = flat fitted curve, though single readings scatter. No potency is given beside an inconclusive call; the fits are too rough. The source holds several records for some structures; these can differ, active in one and inactive in another.
# Experiment: qHTS for Inhibitors of human tyrosyl-DNA phosphodiesterase 1 (TDP1): qHTS in cells in absence of CPT; also: nearly all actives have a fitted effect of over 55% in size
# Conditions: DT40 Tdp1-/- hTDP1 cells, no CPT, ATP luminescence, 48 h; activity change, negative = growth inhibition: at 46.2 µM (top of the series) unless noted
# Method in brief: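 Chicken DT40 Tdp1-/- cells stably complemented with human TDP1 were seeded at 400 cells/well with DMSO in place of 20 nM camptothecin. After compound pinning, cells grew at least 48 hr at 37 °C; viability read by CellTiter-Glo luminescence.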
# % is scaled to controls: 0 for no effect and ±100 for the full control effect; potency is read from the fitted curve at half-maximal effect; tags tell the direction and shape of the fitted curve.
SMILES,Potency,"activity change, negative = growth inhibition"
O=C(NCc1ccc2c(c1)CCN2C(=O)c1ccncc1)c1ccccc1F,"inconclusive [inhibitor, single point]",–
CC(C)(C)C1CCc2c(sc(NC(=O)CSc3nnc(-c4ccccc4)o3)c2C#N)C1 (centres undefined),"inconclusive [inhibitor, single point]",–
CN(C)c1oc(-c2ccccc2Cl)nc1P(=O)(c1ccccc1)c1ccccc1,"inconclusive [inhibitor, single point]",–
CCc1sc(NC(=O)c2cc3ccccc3oc2=O)nc1-c1cccs1,"inconclusive [inhibitor, single point]",–
Cn1c(=O)c2cc(NC(=S)NCc3ccccc3F)ccc2n1Cc1cccc(C(F)(F)F)c1,"inconclusive [inhibitor, partial curve, poor fit]",–
Cc1ccc(S(=O)(=O)N2CCSC2c2ccco2)cc1 (centres undefined),active: 18.4 µM,–
C[C@@H]1CN([C@@H](C)CO)S(=O)(=O)c2ccc(Br)cc2O[C@H]1CN(C)Cc1ccccc1F,active: 10.3 µM,–
O=c1c(Cl)c(N/N=C/c2ccc(Br)cc2)cnn1-c1ccccc1,"inconclusive [inhibitor, single point]",–
Cc1cc(C)c(C)c(S(=O)(=O)NCc2ccc(C(=O)N3CCOCC3)cc2)c1C,–,inactive: -28.5%
Cc1cc(C)n2c(NC3CCCCC3)c(-c3ccc(F)cc3)nc2n1,"inconclusive [inhibitor, single point]",–
O=C(CSc1nnc(-c2ccncc2)o1)NCc1ccc(Cl)cc1,–,inactive: -3.3%
C=CC[C@H](CC(=O)N(CCO)Cc1ccccc1)C(=O)N[C@H](COC(=O)[C@@H](CC=C)CC(=O)OC(C)(C)C)Cc1c[nH]c2ccccc12,active: 16.4 µM,–
Cc1cccc(COc2ccccc2C(=O)OCC(=O)N(C)c2c(N)n(Cc3ccccc3)c(=O)[nH]c2=O)c1,"inconclusive [inhibitor, single point]",–
O=C(CN1CCN(C/C=C/c2ccccc2)CC1)NC(=O)NC1CCCCC1,–,inactive: -12.4%
COc1ccccc1NC(=O)C(=O)NCC(c1cccnc1)N1CCc2ccccc2C1 (centres undefined),"inconclusive [inhibitor, single point]",–
CN1C(=O)CSC1=Nc1cccc(Cl)c1,–,inactive: 10.7%
O=C1CC(NS(=O)(=O)c2cccs2)CN1c1ccccc1 (centres undefined),–,inactive: 0.562%
COCCOc1cc(NC(=O)c2cccc(OC)c2)c(Cl)cc1Cl,"inconclusive [inhibitor, single point]",–
COc1ccc(-c2nn(-c3ccccc3)cc2/C=C/C(=O)OCC(=O)Nc2ccccc2C#N)cc1,active: 23.1 µM,–
O=C(NCc1ccc(F)cc1)c1ccc2oc(=O)n(Cc3ccccc3)c2c1,"inconclusive [inhibitor, single point]",–
Cc1c(C(=O)OC(C)C)sc(NC(=O)c2cccnc2)c1C#N,"inconclusive [inhibitor, partial curve]",–
CC(C)(C)c1ccc(S(=O)(=O)N2CCC(CO)(CC3CCCCO3)CC2)cc1 (centres undefined),"inconclusive [inhibitor, single point]",–
COC(=O)c1ccc(NC(=O)CCc2c(C)nn(-c3ccc(N4CCCCC4)nn3)c2C)cc1,"inconclusive [inhibitor, partial curve]",–

SMILES,Potency,"activity change, negative = growth inhibition"
O=C(NCc1ccccc1F)Nc1nnc([C@H]2C[C@H](O)[C@@H](CO)O2)s1,"inconclusive [inhibitor, full curve, poor fit]",–
COc1ccccc1-n1c(=O)c(C#N)c(-c2ccc([N+](=O)[O-])cc2)c2cc(C(=O)c3ccccc3O)cnc21,–,inactive: 5.32%
CCN(CC(=O)NCc1ccc(Cl)cc1)S(=O)(=O)c1ccc(NC(C)=O)cc1,"inconclusive [inhibitor, single point]",–
COc1ccc(/C=N/N2CCOCC2)cc1COc1ccc(Cl)cc1,"inconclusive [inhibitor, single point]",–
CC1(C)Cc2c(cnn2-c2ccc(F)cc2)C(NC(=O)CCN2CCCC2=O)C1 (centres undefined),"inconclusive [inhibitor, single point]",–
CC(=O)N1CCN(c2ccc(NC(=O)c3ccc(Cl)c(Cl)c3)cc2)CC1,"inconclusive [inhibitor, single point]",–
Cc1cccc2sc(N(CCN(C)C)C(=O)/C=C/c3cccs3)nc12,active: 18.4 µM,–
COc1ccc(NC(=O)CN2CCN(c3ccc(F)cc3)CC2)cc1Cl,"inconclusive [inhibitor, single point]",–
Cc1ccccc1-c1nc(Nc2ccncc2)c2ccccc2n1,–,inactive: -17.5%
S=c1[nH]nc(Cc2ccc(Br)cc2)n1/N=C/c1ccc(Cl)cc1,"inconclusive [inhibitor, single point]",–
CC(C)Cn1c(-c2ccco2)csc1=Nc1cccnc1,"inconclusive [inhibitor, partial curve]",–
CC(C)(C)OC(=O)N1CCC(C(=O)Nc2ccc(C(=O)NCCc3ccccc3)cc2)CC1,active: 10.3 µM,–
CC(=O)Nc1nonc1-c1nnc(SCc2ccccc2)n1C,"inconclusive [inhibitor, single point]",–
COC(=O)c1nn(-c2ccccc2)c(Sc2ccc(Br)cc2)c1/C=N/O,"inconclusive [inhibitor, partial curve, poor fit]",–
COCCCN1CC23C=CC(O2)C(C(=O)O)C3C1=O (centres undefined),"inconclusive [inhibitor, single point]",–
CCn1c(CN2CCN(c3ccc(OC)cc3)CC2)nc2cc(S(=O)(=O)N(C)C)ccc21,"inconclusive [inhibitor, partial curve]",–
CC(NC(=O)c1ccco1)C12CC3CC(CC(C3)C1)C2 (centres undefined),–,inactive: -5.88%
O=c1c2oc3ccccc3c2n(Cc2cccc(F)c2)c(=O)n1Cc1ccc2c(c1)OCO2,"inconclusive [inhibitor, partial curve]",–
COCCn1nnnc1C(c1ccccc1)N1CCN(Cc2ccc3c(c2)OCO3)CC1 (centres undefined),"inconclusive [inhibitor, single point]",–
C=Cc1ccc(Cn2c(SCC(=O)N3CCN(c4ccc(F)cc4)CC3)nc3ccccc32)cc1,"inconclusive [inhibitor, single point]",–
CCC1(c2ccc(F)cc2)NC(=O)N(CC(=O)c2ccc[nH]2)C1=O (centres undefined),"inconclusive [inhibitor, single point]",–
Cc1ccccc1CNC(=O)C(=O)NCC(c1cccs1)S(=O)(=O)c1cccs1 (centres undefined),active: 14.6 µM,–
COC(=O)c1cccc(CN2C(=O)SC(Nc3ccc(C)cc3)C2=O)c1 (centres undefined),"inconclusive [inhibitor, single point]",–

SMILES,Potency,"activity change, negative = growth inhibition"
CCCCNc1cc(C)nc(NCc2ccccc2)n1,active: 5.8 µM,–
COC(=O)c1c(C(=O)OC)c(-c2ccc(F)cc2)n2c1CS(=O)C2 (centres undefined),–,inactive: 9.08%
Cc1cccc(NC(=S)Nc2ccc(Oc3ccccc3)cc2)n1,"inconclusive [inhibitor, single point]",–
O=C(CNCc1ccccc1Cl)Nc1ccc(C(=O)N2CCCCC2)cc1,"inconclusive [inhibitor, partial curve]",–
Cc1cc(=O)oc2c(CN(C)Cc3ccccc3)c(O)ccc12,–,inactive: -21.4%
COC(=O)C1(Cc2cc(-c3cccc(Br)c3)no2)CCN(C(=O)OC(C)(C)C)CC1,"inconclusive [inhibitor, single point]",–
O=C(N/N=C\c1cccnc1)c1cc(-c2ccc(Cl)s2)[nH]n1,"inconclusive [inhibitor, single point]",–
CCOc1ccc(-c2cc(C(=O)NCCc3ccc(OC)c(OC)c3)[nH]n2)cc1,"inconclusive [inhibitor, partial curve]",–
O=C1C=C(c2cc3ccccc3s2)C[C@@H](c2ccc(Cl)cc2)C1,"inconclusive [inhibitor, single point]",–
CN(CCC#N)C(=S)Nc1ccc(Oc2ccccc2)cc1,"inconclusive [inhibitor, single point]",–
N#Cc1c(NC(=O)c2ccc([N+](=O)[O-])o2)sc2c1CCC2,active: 10.3 µM,–
CCOC(=O)c1ccc(NC(=O)CCc2nc3cccnc3n2Cc2cccs2)cc1,active: 18.4 µM,–
O=[N+]([O-])c1cc(C(F)(F)F)ccc1NCCc1ccncc1,"inconclusive [inhibitor, partial curve]",–
O=C(Nc1cccc2ncccc12)c1cccc(Br)c1,–,inactive: -16.8%
CCC(=O)Nc1ccc2nc(C)n(Cc3ccccc3Cl)c(=O)c2c1,–,inactive: -24.9%
COc1ccc(Br)cc1CN(C)CC(=O)Nc1ccccc1Cl,–,inconclusive: -30.5% [inhibitor]
O=C(Nc1ccc(O)cc1)c1ccc(C(=O)c2ccccc2)o1,active: 20 µM,–
CC(=O)Nc1ccc(OC(F)(F)C(F)C(F)(F)F)c(NC(C)=O)c1 (centres undefined),–,inactive: 9.51%
C[C@H](NC(=O)OC(C)(C)C)c1nnc(SCC(=O)Nc2cccc(Cl)c2)o1,–,inactive: 16.6%
C[C@@]12CCC[C@H]1[C@@H]1CC[C@H]3C[C@@H](O)CC[C@]3(C)[C@H]1CC2,–,inactive: 11.9%
CCc1noc(C)c1C(=O)OCC(=O)NC(C)c1ccccc1 (centres undefined),"inconclusive [inhibitor, single point]",–
CC(=O)c1ccc(N2CCN(c3ccc4cc(S(=O)(=O)N5CCC(C)CC5)ccc4n3)CC2)cc1,active: 7.31 µM,–
COC(=O)[C@]1(Sc2ccccc2)CC(=O)N[C@@H]1c1ccccc1,–,inconclusive: -32.9% [inhibitor]
